The source of these data is PubChem BioAssay AID1479 (National Center for Advancing Translational Sciences (NCATS), 2009).

“And” between values parts separate entries of the source, which are not always exact repeats. Identical values can stand only once. Among all 280,000 compounds or so, about 820 (0.29%) were called active. About 1% were inconclusive and are not listed. The call rests on the fitted dose curve; in most records, active means well fitted curve in either direction with a large enough effect; inconclusive means small, poorly fitted or top-dose-only effect; inactive means flat fitted curve, though single readings scatter. The entries are a selection whose mix differs from that of the whole data set. Some structures have more than one record in an assay (separate samples or runs), and their calls can disagree.
On the % scale 0 is the no-effect control and ±100 the full control effect; potency means the concentration at half of the fitted maximal effect; tags describe the fitted curve by direction and shape or compound fluorescence and quenching.

A short description of this assay: Total Fluorescence Counterscreen for Inhibitors of the Interaction of Thyroid Hormone Receptor and Steroid Receptor Coregulator 2. As to conditions: TRb/SRC2 Texas Red total fluorescence interference; series mostly up to 106 µM; fluorescence change, negative = quenching: at the top concentration. An excerpt: NIH Molecular Libraries Probe Production Network [MLPCN]
NIH Chemical Genomics Center [NCGC]
Assay Provider: R. Kip Guy, St. Jude Children's Research Hospital
Thyroid receptor (TR) regulates many homeostatic processes including basal metabolism, cardiovascular function, body weight, and lipid trafficking. TR modulators are potential therapeutics for obesity and hyperlipidemias but current thyroid analogs have undesirable side effects, particularly cardiac stimulation. To identify inhibitors that specifically prevent the interaction of TR with the steroid receptor […] 2 (SRC2), a fluorescence polarization assay was screened. This assay detects interaction of the ligand-binding domain of human TRb with a Texas Red labeled SRC2 peptide, corresponding to a 20 amino acid region of the nuclear receptor interaction domain (Arnold et al., 2006). Total fluorescence (555 nm excitation and 632 nm emission) was measured to identify potential fluorescent and light absorbing compounds. Such compounds may be artifacts that interfere with the fluorescence polarization assay.
Arnold, L. A.; Estebanez-Perpina, E.; Togashi, M.; Shelat, A.; Ocasio, C. A.; McReynolds, A. C.; Nguyen, P.; Baxter, J. D.; Fletterick, R. J.; Webb, P.; Guy, R. K. A high-throughput screening method to identify small molecule inhibitors of thyroid hormone receptor coactivator binding. Sci STKE 2006, p 13.
NCGC Assay Protocol Summary:
For screening, 5 uL/well 0.6 uM TRb and 20 nM SRC2 Texas Red in protein buffer (20mM Tris hydrochloride, 100mM NaCl, 10% glycerol, 1mM EDTA, 0.01% NP-40, 1mM DTT, 1uM T3 and 5% DMSO) was dispensed into black solid 1536-well plates (Grenier) using a solenoid-based dispenser. Following transfer of 23 nL compound or DMSO vehicle by a pin tool, the plates were centrifuged 15 s at 1000 RPM and incubated 5 hr at ambient temperature. The plates were read by an Envision (Perkin Elmer) to detect fluorescence polarization of SRC2 Texas Red (555 nm excitation and 632 nm emission). Data were normalized to unbound (all components except TRb) and bound SRC2 Texas Red controls. Total fluorescence (TF) was calculated as follows: TF = S + 2P where S and P are fluorescence readings in the parallel and perpendicular channels, respectively.
Keywords: NIH Roadmap, MLPCN, MLI, MLSMR, qHTS, NCGC, qHTS, thyroid hormone receptor, steroid receptor coactivator, fluorescence polarization
(In general: Counterscreens check selectivity or assay interference.)
`C[C@H]1[C@H](C)CC[C@]2(C(=O)O)CC[C@]3(C)C(=CCC4[C@@]5(C)CC[C@H](O)C(C)(C)[C@@H]5CC[C@]43C)[C@H]12` (stereo not given in full): the “fluorescence change, negative = quenching” value (“fluorescence change” below) was inactive: -0.682%. On the same count and under the same terms, in the case of `CC(=O)OC[C@@H]1O[C@@H](O/N=C2/C[C@@H](O)[C@@H](O)[C@@H]3[C@@H]4C(=O)N(C[C@@H]5CCCO5)C(=O)[C@H]4CC[C@@H]23)[C@H](OC(C)=O)[C@H](OC(C)=O)[C@@H]1OC(C)=O` it was inactive: 2.59% [at 11.2 µM]. For `O=C1Cc2c([nH]c3ccc(Br)cc23)-c2ccccc2N1`, the Potency entry was “inactive”. On to `O=S(=O)(Nc1cccc(Cl)c1)c1ccc2[nH]c3c(c2c1)CCCCCC3`, for which the Potency was active: 126 µM [quencher].

For the molecule `NC[C@@H](O)c1ccc(O)c(O)c1`, the “fluorescence change” value is inactive: -3.5%. As to `O=C(NCc1cccc(F)c1)C1CCN(C(=O)c2sccc2-n2cccc2)CC1`, the Potency is active: 25.1 µM [quencher]. The same measure, in the same setting: to `Cc1ccc(Nc2nnc(-c3cc4c(ccc5ccccc54)oc3=O)s2)cc1` belongs active: 0.0316 µM [quencher]. On to `NC(=O)C1CCCN1C(=O)C(Cc1cnc[nH]1)NC(=O)C1CCC(=O)N1` (stereo not given), for which the “fluorescence change” value is inactive: 1.85%. On the same count and under the same terms, in the case of `CC(=O)O[C@H]1C(=O)[C@@]2(C)C([C@H](OC(=O)c3ccccc3)[C@]3(O)C[C@H](OC(=O)[C@H](O)[C@@H](NC(=O)c4ccccc4)c4ccccc4)C(C)=C1C3(C)C)[C@]1(OC(C)=O)CO[C@@H]1C[C@@H]2O` (stereo not given in full) it was inactive: -1.83%; in that of `CC[C@H](C)[C@H](NC(=O)[C@H](Cc1ccc(O)cc1)NC(=O)[C@@H](N)C(C)C)C(=O)N[C@@H](Cc1cnc[nH]1)C(=O)N1CCC[C@H]1C(=O)N[C@@H](Cc1ccccc1)C(=O)O`, inactive: -6.71%. As to `O=C(Cn1c(-c2cccs2)cc2ccccc21)N1CCN(c2ccccc2F)CC1`, the Potency was active: 100 µM [quencher].

On to `CCOc1ccc(CNC(=O)c2cnc3sc(N4CCOCC4)nn3c2=O)cc1OC`, for which the Potency is active: 2000 µM [quencher]. In the case of `COC(=O)c1ccc(C(=O)OC)c(NC(=O)CN(c2ccccc2)S(=O)(=O)N(C)C)c1`, the “fluorescence change” value is inactive: 1.18%. On the same count and under the same terms, in the case of `CCOc1cccc(CNCCNC(=O)c2nonc2N)c1` it was inactive: -1.26%. `Nc1ccn([C@@H]2O[C@H](CO)[C@@H](O)C2O)c(=O)n1` (stereo not given in full): the “fluorescence change” value is inactive: 3.23%.

For the molecule `Cc1cc2nc3ccc(=[N+](C)C)cc-3sc2cc1N`, the Potency was active: 44.7 µM [fluorescent]. On to `COc1cc(OC)cc(C(=O)Nc2ccc(S(=O)(=O)Nc3ncccn3)cc2)c1`, for which the “fluorescence change” value is inactive: 1.45%. In the case of `O=C1OC2(c3ccccc31)c1cc(I)c(O)c(I)c1Oc1c2cc(I)c(O)c1I`, the Potency was active: 39.8 µM [fluorescent]. With `COC(=O)[C@@H](c1ccccc1Cl)N1CCc2sccc2C1`, the “fluorescence change” value is inactive: -0.598%. With `CN[C@@H]1[C@H](O[C@H]2[C@H](O[C@H]3[C@H](O)[C@@H](O)[C@H](N=C(N)N)[C@@H](O)[C@@H]3N=C(N)N)O[C@@H](C)[C@]2(O)C=O)O[C@@H](CO)[C@H](O)[C@H]1O`, the “fluorescence change” value was inactive: -0.208%. `O=C(COC(=O)c1cc([N+](=O)[O-])ccc1NCCO)c1ccccc1`: the Potency is active: 100 µM [quencher].

On to `O=C(CCc1ccc(O)cc1)c1c(O)cc(O)cc1O[C@@H]1O[C@H](CO)[C@@H](O)[C@H](O)[C@H]1O`, for which the “fluorescence change” value is inactive: -2.86%. Regarding `CCc1ccc2occ(CC(=O)Nc3c(C(=O)Nc4ccc(C)cc4)oc4ccccc34)c2c1`, the Potency is active: 1120 µM [quencher]. On the same count and under the same terms, to `NCCCCCCNS(=O)(=O)c1cccc2c(Cl)cccc12` belongs “inactive”. Consider `CCOC(=O)CC(NC(=O)Cn1nnc(-c2ccccc2F)n1)c1ccccc1Cl` (stereo not given), for which the “fluorescence change” value was inactive: -1.78%.

As for `CNC1C(O)C(O)C(CO)O[C@H]1OC1C(O[C@@H]2C(O)C(O)[C@@H](N=C(N)N)C(O)C2N=C(N)N)OC(C)[C@]1(O)C=O` (stereo not given in full), the “fluorescence change” value is inactive: 1.5%.

With `Cc1cccc(N2CCN(C(=O)C3CCN(c4ncnc5c4nc4n5CCCCC4)CC3)CC2C)c1` (stereo not given), the Potency is active: 20 µM [quencher]. With `O=C(Nc1cccc(F)c1)c1ccc(Br)o1`, the “fluorescence change” value is inactive: -0.459%. For `CC(=O)OC[C@H]1O[C@@H](n2ncc(=O)[nH]c2=O)[C@H](OC(C)=O)[C@@H]1OC(C)=O`, the “fluorescence change” value is inactive: -0.203%.

For the molecule `COc1ccc(/C=C2\CCn3c2nc2cc(C(=O)O)ccc2c3=O)cc1O`, the Potency was active: 0.316 µM [quencher]. `CC1=C(/C=C/C(C)=C/C=C/C(C)=C/C(=O)O)C(C)(C)CCC1`: the Potency result is “inactive”. With `CCO/C([O-])=N/c1c[n+](N2CCOCC2)no1`, the Potency entry is “inactive”. On the same count and under the same terms, to `C[C@](N)(Cc1ccc(O)c(O)c1)C(=O)O` belongs “inactive”.

Consider `COc1ccc(S(=O)(=O)/N=C2/NC(=O)/C(=C\c3ccco3)S2)cc1`, for which the “fluorescence change” value was inactive: -0.35%. For the molecule `Cc1ccc2oc(C(=O)Nc3ccc(S(=O)(=O)N(C)c4ccccc4)cc3)cc(=O)c2c1`, the Potency is active: 100 µM [quencher]. On the same count and under the same terms, in the case of `CCCN(CCC)C(=O)Cn1c(=O)n(-c2ccc(CC)cc2)c(=O)c2c3c(sc21)CCC3` it was active: 0.199 µM [quencher]; in that of `CCC(/C=C1\Sc2ccc(OC)cc2N1CCO)=C\c1sc2ccc(OC)cc2[n+]1CCO`, active: 39.8 µM [fluorescent] and active: 50.1 µM [fluorescent]; in that of `O=S(=O)(O)c1ccc(N=Nc2cc(S(=O)(=O)O)c3ccccc3c2O)c2ccccc12`, active: 100 µM [fluorescent]. With `OC[C@H]1NC[C@H](O)[C@@H](O)[C@@H]1O`, the “fluorescence change” value was inactive: -8.5%. Regarding `C=C(C)[C@H]1CC[C@]2(CO)CC[C@]3(C)[C@@H](CC[C@H]4[C@@]5(C)CC[C@@H](O)C(C)(C)[C@@H]5CC[C@@]43C)[C@H]12`, the “fluorescence change” value is inactive: -6.66% [at 53 µM].
